# From the supplement of paper PMC3334620
# Over roughly 33,000 sequences, “E-score (-0.5 to 0.5)” has its median near -0.041; the highest 2% begin near 0.37. The list shows a part of the results.
# Molecular target: T1, Ecm22 (UniProt Q05958)
# T1 sequence: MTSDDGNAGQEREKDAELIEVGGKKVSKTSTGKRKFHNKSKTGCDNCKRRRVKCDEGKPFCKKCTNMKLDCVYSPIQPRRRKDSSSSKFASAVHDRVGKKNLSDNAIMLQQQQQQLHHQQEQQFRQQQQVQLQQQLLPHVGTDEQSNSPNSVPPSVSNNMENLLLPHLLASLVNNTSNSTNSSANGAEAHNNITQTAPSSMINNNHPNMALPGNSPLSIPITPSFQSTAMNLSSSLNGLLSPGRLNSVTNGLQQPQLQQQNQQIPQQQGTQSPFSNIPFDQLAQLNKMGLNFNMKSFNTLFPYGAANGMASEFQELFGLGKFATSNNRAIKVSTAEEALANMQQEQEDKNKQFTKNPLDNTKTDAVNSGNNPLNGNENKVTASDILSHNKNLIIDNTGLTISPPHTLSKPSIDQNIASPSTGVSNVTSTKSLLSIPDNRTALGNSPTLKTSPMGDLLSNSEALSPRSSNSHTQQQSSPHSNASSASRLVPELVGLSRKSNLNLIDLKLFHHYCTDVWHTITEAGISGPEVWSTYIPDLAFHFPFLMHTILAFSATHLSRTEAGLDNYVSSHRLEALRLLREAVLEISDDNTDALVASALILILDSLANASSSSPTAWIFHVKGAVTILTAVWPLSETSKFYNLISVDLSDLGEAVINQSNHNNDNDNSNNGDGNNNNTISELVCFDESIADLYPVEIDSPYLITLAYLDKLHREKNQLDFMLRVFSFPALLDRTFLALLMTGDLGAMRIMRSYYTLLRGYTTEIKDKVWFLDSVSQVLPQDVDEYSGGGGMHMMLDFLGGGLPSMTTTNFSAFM
# Test: PBM E-score (8-mer binding enrichment) (E-score (-0.5 to 0.5)); higher = stronger / more preferred TF binding; most listed sequences are background and not binding sites
# Conditions: protein concentration: 200 nM; construct: GST-full length
# Summary of the method: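 PURExpress in vitro transcription/translation supplied GST-tagged yeast transcription factors, either full-length or DNA-binding domain. Applied at about 100-200 nM to universal all-10-mer Agilent arrays double-stranded by primer extension, the bound protein was detected with fluorescent anti-GST. E-scores, modified Wilcoxon-Mann-Whitney statistics, were given by the Universal PBM Analysis Suite to ungapped eight-base words pooled with their reverse complements after masliner normalisation.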
row,Sequence,PBM E-score
1,CAATAAGC,-0.0593
2,AGTAGTAC,0.167
3,ATATGAGC,-0.14
4,GGCATACC,-0.202
5,AGTGCGTG,0.0494
6,ATGAGACA,0.00575
7,GACCGAAC,0.198
8,GCATCGCC,0.0445
9,GGCAAAGA,0.0998
10,ACACGTCG,0.189
11,AATGGTTC,-0.00726
12,GAGTGGCC,0.0549
13,AGGTGCAC,-0.217
14,AAGTTTAT,0.0346
15,GCATAGCA,-0.00745
16,GACCTTGC,0.096
17,AGATCATA,-0.0154
18,CCGCAAGA,0.0804
19,ACAGAAAA,0.11
20,AATATAGA,0.0601
21,AAACTCCT,-0.185
22,AAAGGCAA,-0.13
23,ATTCGCAA,0.0528
24,CACTACTA,-0.172
25,CACCCATG,-0.165

row,Sequence,PBM E-score
1,GGGGTCTA,-0.178
2,GTATCCCA,-0.118
3,CACTCTAA,-0.266
4,GGGAATTA,-0.132
5,GACGCCTC,0.117
6,ACCGTTAC,0.0437
7,GCAGTTAC,0.0133
8,CATTATAG,-0.144
9,CGAATGAC,0.192
10,GTAAAGAA,0.156
11,CATTTAAG,-0.0776
12,AAGAAGGC,-0.198
13,CGTAGCTC,0.32
14,TCGATTCA,0.0423
15,CCTCATCA,-0.0607
16,GTTACAGA,-0.244
17,ATCTCTCG,0.222
18,CCCACGCC,-0.152
19,ATACGAAT,0.45
20,CAGAGCCA,-0.108
21,ATAGATGA,-0.0201
22,ATCCTTAC,-0.0592
23,AGGCTTTA,-0.133
24,CGGGCAAA,0.0112
25,ACACGGAA,-0.124

row,Sequence,PBM E-score
1,CAATATGG,-0.263
2,AACCTACG,0.0972
3,GTTTTGGA,-0.102
4,CTCGACAA,0.0127
5,ACCCGTGG,-0.201
6,ATCGATAA,-0.0502
7,GTTGTTAA,0.0804
8,CTTAGCAC,-0.103
9,GCTATAAA,0.00908
10,AGGTACCT,-0.0974
11,GAATGATC,0.0119
12,CGTTCGTA,0.461
13,ACGTACCG,0.301
14,TATGGAGA,-0.121
15,CCTGAATC,-0.128
16,ACCATACA,-0.0596
17,GCTAAGAA,0.0908
18,CGTAAGAG,0.226
19,AGCATCGG,-0.0521
20,CGTTAGCA,0.0718
21,GGTTTCCA,-0.26
22,GACGAAAA,0.196
23,ACTGCTAC,0.00971
24,AGTTAGTA,-0.0292
25,CTTAGCCC,-0.15

row,Sequence,PBM E-score
1,AGGATCTG,-0.0568
2,AGCCGGCT,-0.311
3,TCAGCAAA,0.0003
4,ATTTCCTA,0.0839
5,AAGTTTCT,-0.162
6,ATCCGTCA,-0.099
7,ACGGGCGG,-0.105
8,GAGAGCGC,-0.0803
9,CGCGACCG,0.239
10,ACGCCTAT,-0.199
11,TCGACTCA,-0.0622
12,CAAGCCGG,-0.191
13,AAGCTTTC,0.014
14,CTAGCAGC,-0.208
15,CACTGTTC,-0.209
16,TAAGTTCA,-0.0208
17,GCGAACGC,0.138
18,CAGCTTGC,-0.144
19,GCAGTCTA,-0.131
20,AGTTCGGG,0.0511
21,GCATCGTA,0.426
22,ATCTGCAG,0.0311
23,CGCAGTAA,0.0437
24,GAAATTAC,-0.00336
25,GCAGCTAA,-0.0743

row,Sequence,PBM E-score
1,GGTTAGTA,0.116
2,AAAAGTAC,0.108
3,CCAGATTA,-0.112
4,ATGTTACA,-0.0708
5,ACCCCTTG,-0.206
6,ACTAGTTC,-0.0905
7,ATATACAG,0.113
8,AAAGGAAG,-0.135
9,GCCTGATA,-0.146
10,CTCGCGAA,0.326
11,GTACCTCA,0.12
12,CTAGGCAC,-0.255
13,CAAATTTC,-0.0201
14,TACGATAA,0.408
15,AACTCGCT,0.307
16,AGCTCGCA,0.239
17,GACCACTC,0.0777
18,ACATACCG,0.0445
19,AGCATCAT,-0.11
20,TCGCCCGA,-0.102
21,CGGATAGC,0.102
22,CCGTCAAA,-0.0196
23,GATTTGAA,-0.0728
24,GAGAGCCC,-0.0765
25,ACAGTCTG,-0.0108

row,Sequence,PBM E-score
1,GAGCCAGA,-0.133
2,CTGACTGC,-0.259
3,GTGGAGGA,-0.0767
4,GACACGCC,0.099
5,GGAAATTA,-0.0713
6,AGCTGGTA,-0.114
7,CTCAGTCA,-0.255
8,ACATCGAT,0.0238
9,ATTAGAGC,0.113
10,TACTCAGA,-0.0717
11,ACTAAGGA,0.1
12,CCACTTTC,-0.0677
13,AATCACCA,0.0614
14,AACTAAAT,-0.115
15,ACAGGCCC,-0.38
16,TACCAAAA,-0.143
17,CATTCTTC,-0.029
18,GTAACGAC,0.289
19,CACTAGCA,-0.103
20,ATGGGCTG,-0.233
21,AGATACGA,0.47
22,CAGGGACG,-0.229
23,CGAATGGC,0.0911
24,TCGGCCAA,-0.148
25,GGCCACGA,-0.164

row,Sequence,PBM E-score
1,CCCACTGC,-0.146
2,CAGCCCAA,-0.136
3,TCGTGCCA,0.0819
4,TAGCTCCA,-0.145
5,AGTGGCGG,-0.141
6,CGAACCGA,0.327
7,AGATTATG,0.0821
8,AATTAGCC,-0.0824
9,AGCGTGGG,-0.0957
10,CACATGCG,0.0542
11,CCATCCCC,-0.273
12,ACATCATA,-0.0357
13,AGAAAAAC,-0.0842
14,TCGTCACA,0.029
15,CTCTTAGA,-0.173
16,CCGGTCCC,-0.0746
17,ATTACGAG,0.38
18,CAATGGAA,-0.0891
19,ATAAATAA,0.248
20,GTGAGCCA,-0.175
21,CCTCTTCA,-0.189
22,ATAAGTAA,-0.0591
